The values below come from article PMC4336329 (PLoS ONE, 2015).

Among all 310,000 compounds or so, about 2,200 (0.71%) showed an effect of 50% or more. Effects have a minus sign here. Some of the results follow.

For this experiment, the target named is human ether-à-go-go-related gene (hERG) potassium channel (human, UniProt Q12809). In words: primary screen, population patch clamp on CHO cells stably expressing hERG.
human ether-à-go-go-related gene (hERG) potassium channel, sequence (Q12809 whole entry, looked up): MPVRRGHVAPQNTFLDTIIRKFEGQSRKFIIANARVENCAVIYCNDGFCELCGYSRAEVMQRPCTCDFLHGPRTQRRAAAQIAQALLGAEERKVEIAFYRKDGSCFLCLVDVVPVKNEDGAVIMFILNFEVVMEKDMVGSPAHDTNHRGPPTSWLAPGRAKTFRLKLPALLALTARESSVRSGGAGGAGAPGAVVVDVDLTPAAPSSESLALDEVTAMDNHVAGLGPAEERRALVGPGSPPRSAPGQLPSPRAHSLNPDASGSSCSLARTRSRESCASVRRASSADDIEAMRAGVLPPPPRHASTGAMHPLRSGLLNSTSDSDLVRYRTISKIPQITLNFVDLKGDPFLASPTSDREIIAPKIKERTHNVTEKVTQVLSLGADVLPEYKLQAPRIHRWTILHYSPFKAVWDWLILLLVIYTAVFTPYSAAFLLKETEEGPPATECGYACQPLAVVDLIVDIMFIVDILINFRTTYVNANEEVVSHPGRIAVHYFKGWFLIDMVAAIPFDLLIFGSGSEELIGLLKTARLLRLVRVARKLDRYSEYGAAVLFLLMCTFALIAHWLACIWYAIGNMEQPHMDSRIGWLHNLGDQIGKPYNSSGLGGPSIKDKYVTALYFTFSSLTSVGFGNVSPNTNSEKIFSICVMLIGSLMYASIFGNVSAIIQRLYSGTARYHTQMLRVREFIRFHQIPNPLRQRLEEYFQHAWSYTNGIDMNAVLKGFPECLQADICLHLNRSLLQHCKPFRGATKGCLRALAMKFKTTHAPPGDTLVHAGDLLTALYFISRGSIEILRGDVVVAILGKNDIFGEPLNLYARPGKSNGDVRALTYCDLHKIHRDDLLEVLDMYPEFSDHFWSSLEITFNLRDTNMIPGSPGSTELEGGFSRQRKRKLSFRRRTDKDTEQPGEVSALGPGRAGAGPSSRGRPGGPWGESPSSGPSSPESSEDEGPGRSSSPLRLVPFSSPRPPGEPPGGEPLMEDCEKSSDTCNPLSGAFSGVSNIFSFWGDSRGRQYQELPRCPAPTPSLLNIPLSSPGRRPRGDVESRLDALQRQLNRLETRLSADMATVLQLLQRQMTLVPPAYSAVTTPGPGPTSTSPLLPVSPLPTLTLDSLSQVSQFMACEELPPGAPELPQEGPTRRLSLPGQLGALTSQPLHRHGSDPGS
For `Cc1cccc(N2C(=S)NC3c4ccccc4OC2(C)C3C(=O)N(C)C)c1` (stereo not shown), the “hERG current change (%, negative = inhibition) at 1uM” value was 4.98%.
Then `CCOC(=O)N1CCN(C(=O)c2ccc3nc(C)sc3c2)CC1`, with 9.35%.
In the case of `CSc1ccc(C2NC(=O)c3c(sc4c3CCN(C)C4)N2)cc1` (stereo not shown), the “hERG current change (%, negative = inhibition) at 1uM” value is reported as -23.7%.
Then `Clc1ccc(-c2nc3ccccc3[nH]2)cn1`, with 12.8%.
Then `CCO.Cn1c2c(c(=O)n(C)c1=O)C1(C(=O)Nc3ccccc31)C(C#N)=C(N)O2` (stereo not shown), with 11.8%; and `Cn1c(=O)n(C)c2cc(S(=O)(=O)N3CCCc4ccccc43)ccc21`, with -9.22%; and `CCOC(=O)CC(=O)CSc1nc2c(cc1C#N)CCCCC2`, with 13.3%.
Then `CC1CCc2c(sc(/N=C/c3cccnc3)c2C(N)=O)C1` (stereo not shown), with 12.2%; and `CC(C)CN(C(=O)COC(=O)c1ccc2c(c1)NC(=O)CS2)C1CCS(=O)(=O)C1` (stereo not shown), with 9.17%.
As to `CC(C)c1ccc(NC(=O)CNS(=O)(=O)c2ccc(F)cc2)cc1`, the “hERG current change (%, negative = inhibition) at 1uM” value amounted to 7.51%.
Then `C=C1CCN([C@@H](CC(C)C)C(=O)O)S(=O)(=O)c2ccccc21`, with 15.5%.
In the case of `COc1ccc(C2N(c3ccc4c(c3)OCCO4)C(=O)C2(F)F)cc1OC` (stereo not shown), the “hERG current change (%, negative = inhibition) at 1uM” value turned out to be 13.5%.
For `CNC(=O)c1[nH]cnc1C(=O)N[C@@H](Cc1ccccc1)C(=O)OCc1ccccc1`, the “hERG current change (%, negative = inhibition) at 1uM” value is recorded as 10.6%.
On to `COc1ccc(CNC(=O)CNC(=O)[C@@H]2Cc3ccccc3CN2)cc1`, for which the “hERG current change (%, negative = inhibition) at 1uM” value amounted to 28.5%.
Then `CC(C)Cn1c(N)c(C(=O)NCCN2CCOCC2)c2nc3ccccc3nc21`, with -71.5%; and `COc1ccccc1-n1c(-c2cn(C)nc2C)n[nH]c1=S`, with 15.1%; and `Cc1ccc(C(=O)N/C(=C/c2cccc([N+](=O)[O-])c2)C(=O)NCC2CCCO2)cc1` (stereo not shown), with -44.3%.
For `COc1ccc(-c2nc(-c3ccccn3)ncc2S(C)(=O)=O)cc1`, the “hERG current change (%, negative = inhibition) at 1uM” value is on record as 10.1%.
For the compound `Cc1ccc(-c2[nH]nc(N)c2N=Nc2ccccc2C)cc1`, the “hERG current change (%, negative = inhibition) at 1uM” value was determined as 4.85%.
Then `CCN1C(=O)[C@H]2[C@@H](c3ccc(-c4cccc(Cl)c4)cc3)N[C@@](Cc3ccccc3)(C(=O)OC)[C@H]2C1=O.O=C(O)C(F)(F)F`, with 0.443%; and `COc1cccc(CNC(=O)CCNS(=O)(=O)c2ccc(Br)s2)c1`, with 7.67%.
Then `O=C(/C=C/c1ccc(N2CCOCC2)cc1)c1ccccc1`, with 9.84%.
Turning to `CCCCC/C=C/C1=CC(=O)C[C@H](c2ccc3c(c2)OCO3)C1`, the “hERG current change (%, negative = inhibition) at 1uM” value is 6.83%.
Then `COP(=O)(OC)C(O)C(Cl)(Cl)Cl` (stereo not shown), with 17.5%; and `CCN(C(=O)C(C)N1C(=O)/C(=C/c2cccs2)SC1=S)C1CCS(=O)(=O)C1` (stereo not shown), with -0.641%.
For `CCN(CC)C(=O)CSc1nnc(-c2ccccn2)n1-c1ccc(C)c(C)c1`, the “hERG current change (%, negative = inhibition) at 1uM” value is -4.22%.
Regarding `CC(=O)O[C@H]1CC[C@@]2(C)C(=CC[C@@H]3[C@@H]2CC[C@]2(C)C(=O)CC[C@@H]32)C1`, the “hERG current change (%, negative = inhibition) at 1uM” value is recorded as 13.1%.
Then `O=C(OCc1cccc([N+](=O)[O-])c1)c1ccncc1`, with 10.6%; and `COCCNC(=O)CCn1nc(-c2ccc(C)cc2)ccc1=O`, with 8.85%; and `COc1ccc(NC2CCCN(C(=O)C3(C)CCCCC3)C2)cc1OC` (stereo not shown), with 8.79%.
Then `CC(C)C(C(=O)NCC1CCCO1)N(C(=O)CNS(=O)(=O)c1ccc(F)cc1)c1ccccc1` (stereo not shown), with 4.58%; and `O=C(Cn1c(=O)n(Cc2ccccc2)c(=O)c2cc(Cl)ccc21)NCC1CCCO1` (stereo not shown), with 11%; and `COc1cc(OC)c(OC)cc1CN1CCCC(C(=O)N2CCCCC2)C1.O=C(O)C(=O)O` (stereo not shown), with 6.47%.
Then `O=S1(=O)N=C(N/N=C/c2ccco2)c2ccccc21`, with 13.8%; and `CSc1ncc(S(=O)(=O)c2ccccc2)c(=O)[nH]1`, with 2.16%; and `COc1cc(OC)c(Nc2cc(C)nc3nc(C)nn23)cc1Cl`, with 12.9%.
As for `Cc1[nH]nc(-c2ccc(OCc3cnn(-c4ccccc4)c3)cc2O)c1Oc1ccc(Cl)cc1`, the “hERG current change (%, negative = inhibition) at 1uM” value stood at 10.2%.
On to `Cc1ccc(Nc2nnc(SCC(=O)c3c(N)n(C4CC4)c(=O)[nH]c3=O)s2)cc1C`, for which the “hERG current change (%, negative = inhibition) at 1uM” value was determined as 13.3%.
Then `CC1(C)OC(=O)C(=NNc2ccccc2)C(=O)O1`, with 5.61%.
`CN1C2=CC=CC=CC2=[N+](C)C12C([N+](=O)[O-])=CC(=[N+]([O-])[O-])C=C2[N+](=O)[O-]` (stereo not shown): the “hERG current change (%, negative = inhibition) at 1uM” value is 9.17%.
Then `CCN(CC)C(=O)CN(C)S(=O)(=O)c1cccc2nsnc12`, with 10.6%; and `CN1CCN(c2ccccc2NC(=O)c2cc3ccccc3o2)CC1`, with -19.3%.
Then `CCOc1ccc(NC(=S)NC(C)c2cccs2)cc1` (stereo not shown), with 8.67%.
